Values marked as one replicate rest on one cluster of the flow cell; about a third of the high ones do not repeat.
tested on: ATP; assay: switch fluorescence ratio, 500 uM ATP over buffer (Cy3 cluster intensity, sum of 5 cycles each) (fold (ratio)); higher = stronger signal-on switching upon ATP binding; sequences stand for … in TCGTCGGCAGCGTCAGATGTGTATAAGAGACAGTTTTTTTTTTTTTTTTTTTTTTTTT…TC; settings: aptamer strand: ATP DNA aptamer (quencher-CACCTGGGGGAGTATTGCGGAGGAAGG + anchor), 100 nM annealed; ATP concentration: 500 uM; one replicate
Outline: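 Exposure to 500 uM ATP lasted 15 min at 22 °C before imaging, and a selection-buffer image was taken beforehand, for Cy3-labelled switching-strand clusters on a modified Illumina MiSeq flow-cell annealed to 100 nM quencher-labelled ATP aptamer. Five buffer/ATP cycles were run with NaOH stripping and re-annealing between them. The fluorescence ratio per cluster is summed target-cycle over summed buffer-cycle Cy3 intensity, averaged per switch-domain sequence. Clusters outside 100-1000 RFU were excluded.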

Sequence	switch fluorescence ratio
TCGTTGAGAG	1.04
TCGTTTAAAC	1.04
TCGTTTCTTA	0.954
TCTAAATACC	1.11
TCTAACTAAT	1.38
TCTAACTGTG	1.01
TCTAAGAATT	1.02
TCTAAGGACA	1
TCTAAGGTCA	1.1
TCTAAGTTCG	0.945
TCTAATAAA	1.01
TCTAATCATG	0.958
TCTAATCGTG	0.968
TCTAATCTGA	0.986
TCTAATGATA	0.997
TCTAATGGAG	0.968
TCTACGCCAG	1.07
TCTACTAAGA	1.03
TCTACTCGCA	1.42
TCTAGACAGC	1
TCTAGACCAT	0.982
TCTAGCTGGT	1.01
TCTAGTAAAC	1.06
TCTATAAGAT	1.1
TCTATACCTC	1.05

Sequence	switch fluorescence ratio
TCTATATAGG	0.978
TCTATATGC	1.04
TCTATATTT	1
TCTATGTGGT	0.964
TCTATTACTG	0.938
TCTATTATGG	0.947
TCTCAATG	1.05
TCTCAATGTT	1.04
TCTCACCTGT	1.02
TCTCAGGATA	1.04
TCTCAGGT	0.981
TCTCAT	1.05
TCTCATCACC	1.02
TCTCCTGGAG	1.02
TCTCGATTT	1.05
TCTCGCGACT	1.17
TCTCGCGATT	1.76
TCTCGGCCAA	2.73
TCTCGGGGAT	1.04
TCTCTATAT	1.02
TCTCTCAACG	1.06
TCTCTCACAC	2.69
TCTCTCTTCT	0.995
TCTCTGATTG	1.02
TCTCTGGG	0.998

Sequence	switch fluorescence ratio
TCTCTTCAGG	1.08
TCTCTTGCTT	1.2
TCTGAAGAGG	1.02
TCTGAATCAC	1.08
TCTGAGAAGT	1.01
TCTGAGCCAC	1.27
TCTGAGTATG	0.989
TCTGAGTGTA	0.956
TCTGGCGGGC	1.01
TCTGGGAAAC	1.02
TCTGGGATAA	1.03
TCTGGGATAT	1.01
TCTGGGATG	0.981
TCTGGGCGTT	0.965
TCTGGTAATC	1.09
TCTGGTATTT	1
TCTGGTCTTG	1.04
TCTGGTGGCG	0.969
TCTGTATTGT	0.971
TCTGTCTGGA	0.969
TCTGTCTTG	1.01
TCTGTGCATG	1.04
TCTGTGGCCT	0.917
TCTGTGTGTG	1.01
TCTTAAAAGT	0.999

Sequence	switch fluorescence ratio
TCTTAAGAG	0.986
TCTTAAGGC	0.926
TCTTAGGAGT	0.997
TCTTAGTGAC	0.979
TCTTATTTCG	1.03
TCTTATTTTC	1.02
TCTTCAAGGA	0.966
TCTTCAATCC	1.09
TCTTCACGCT	0.992
TCTTCCGTCG	1.66
TCTTCCTAAA	1.03
TCTTCTGGTA	0.953
TCTTGACCCT	1.03
TCTTGAGGG	1.03
TCTTGAGTCC	0.985
TCTTGGAAGC	0.982
TCTTGTAGTC	0.994
TCTTGTGACG	1.08
TCTTGTTGTG	0.988
TCTTTAGAAC	1.05
TCTTTATCCT	1.04
TCTTTCTTGG	1.37
TCTTTGACA	1.06
TCTTTGAGAG	0.994
TCTTTGGCGA	1.03
